Experimental data reported in patent US11747352B2.

Substrate: COC(=O)[C@@H]1CC2=CC(=O)CC[C@]2(C)[C@@]23O[C@@H]2C[C@@]2(C)[C@@H](CC[C@@]24CCC(=O)O4)[C@H]13
Test: cells, lysate or membranes named
Conditions: rhCYP3A4

B1: rhCYP3A4 (Homo sapiens) (protein)
chain: ALIPDLAMETWLLLAVSLVLLYLYGTHSHGLFKKLGIPGPTPLPFLGNILSYHKGFCMFDMECHKKYGKVWGFYDGQQPVLAITDPDMIKTVLVKECYSVFTNRRPFGPVGFMKSAISIAEDEEWKRLRSLLSPTFTSGKLKEMVPIIAQYGDVLVRNLRREAETGKPVTLKDVFGAYSMDVITSTSFGVNIDSLNNPQDPFVENTKKLLRFDFLDPFFLSITVFPFLIPILEVLNICVFPREVTNFLRKSVKRMKESRLEDTQKHRVDFLQLMIDSQNSKETESHKALSDLELVAQSIIFIFAGYETTSSVLSFIMYELATHPDVQQKLQEEIDAVLPNKAPPTYDTVLQMEYLDMVVNETLRLFPIAMRLERVCKKDVEINGMFIPKGVVVMIPSYALHRDPKYWTEPEKFLPERFSKKNKDNIDPYIYTPFGSGPRNCIGMRFALMNMKLALIRVLQNFSFKPCKETQIPLKLSLGGLLQPEKPVVLKVESRDGTVSGA
other: 6β-OH metabolite formation
  Km: 613 mcM
other: 21-OH metabolite formation
  Km: 362 mcM
